# Source: the supplement of paper PMC4604168 (melanoma cell lines)
# This is one part of the list. Single values are uncertain, as repeats are few or missing.
# What was measured:
# Assay in all cases: cell count relative to DMSO control; melanoma cells; higher = more viable cells
# Details in all cases: library dose: standard library concentration; 72 h
# [1] = system: G361
# [2] = system: IPC-298
# [3] = system: IST-MEL1
# [4] = system: LB2518-MEL
# [5] = system: LOXIMVI
# [6] = system: MEL-HO
# [7] = system: MZ2-MEL
# [8] = system: MeWo
# [9] = system: RPMI7951
# [10] = system: RVH-421
# [11] = system: SkMel28
# [12] = system: SkMel2
# [13] = system: SkMel30
# [14] = system: SkMel5
# [15] = system: UACC257
# [16] = system: UACC62
# [17] = system: WM115
# [18] = system: WM1716
# [19] = system: WM1745
# [20] = system: WM3526
# 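Note: cells treated in 1,536-well plates, then fixed and DAPI-stained, with nuclei counted from automated high-throughput microscope images.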
SMILES,cell count [1] [%],cell count [2] [%],cell count [3] [%],cell count [4] [%],cell count [5] [%],cell count [6] [%],cell count [7] [%],cell count [8] [%],cell count [9] [%],cell count [10] [%],cell count [11] [%],cell count [12] [%],cell count [13] [%],cell count [14] [%],cell count [15] [%],cell count [16] [%],cell count [17] [%],cell count [18] [%],cell count [19] [%],cell count [20] [%]
"Cc1ccc(NC(=O)c2cccc(N(C)C)c2)cc1NC(=O)c1ccc(O)cc1 + CN(NC(=O)CC(=O)NN(C)C(=S)c1ccccc1)C(=S)c1ccccc1 [STA4783] (first compound 10 µM, partner dose 0.03 µM)",24.9,47.9,34.3,17,71,67.2,83.2,10.9,56,63.3,16.8,30.9,78.5,28.2,94.3,23.5,17.8,60.3,27.1,71.1
"Cc1ccc(NC(=O)c2cccc(N(C)C)c2)cc1NC(=O)c1ccc(O)cc1 + OCCn1cc(-c2cnc3nnn(Cc4ccc5ncccc5c4)c3n2)cn1 [PF04217903] (first compound 10 µM, partner dose 5 µM)",96.7,105,89.1,111,120,100,114,101,103,134,89,100,105,97.9,92.9,87.3,94,116,111,87.2
"NC(=O)c1ccc(N(C(N)=O)c2c(F)cccc2F)nc1-c1ccc(F)cc1F + Cc1nc(Nc2ncc(C(=O)Nc3c(C)cccc3Cl)s2)cc(N2CCN(CCO)CC2)n1 [dasatanib] (first compound 2 µM, partner dose 0.02 µM)",72.5,99.4,72.3,73,18.3,64.9,54,88.5,27.5,71.9,67.2,79.5,105,63.3,82.3,76.5,58.3,79.9,34.1,76.6
"Cc1ccc(NC(=O)c2cccc(N(C)C)c2)cc1NC(=O)c1ccc(O)cc1 + O=c1cc(-c2cccc3c2Sc2ccccc2S3)oc(N2CCOCC2)c1 [KU55933] (first compound 10 µM, partner dose 5 µM)",64,76.1,91.9,54.1,83,76.7,81.8,91.9,73.1,100,72.2,84.3,72,87.1,89.9,77.7,97.7,121,92.5,79
"CC(C)(C)c1cnc(CSc2cnc(NC(=O)C3CCNCC3)s2)o1 + COc1ccc(COc2ccc(Cc3cnc(N)nc3N)cc2OC)cc1 [GW2580] (first compound 0.05 µM, partner dose 5 µM)",128,107,108,80.6,65.9,106,96.9,98.6,49,63.9,54.4,83.2,75.7,75.8,80.1,67.5,83.5,83.6,94.7,105
"CN(NC(=O)CC(=O)NN(C)C(=S)c1ccccc1)C(=S)c1ccccc1 + Oc1nc(-c2ccc(C(F)(F)F)cc2)nc2c1CSCC2 [XAV939] (first compound 0.03 µM, partner dose 10 µM)",24.2,56.1,31.6,17.8,70.3,68.4,109,8.77,67,83.9,10.8,55.6,82.2,44.1,76.8,32.5,20.4,46.4,29.2,84.4
"Cc1ccc(NC(=O)c2cccc(N(C)C)c2)cc1NC(=O)c1ccc(O)cc1 + CCc1ccc(CCOc2ccc(CC3SC(=O)NC3=O)cc2)nc1 [pioglitazone] (first compound 10 µM, partner dose 10 µM)",88.9,103,89.2,104,109,88.5,84.2,95.1,106,98.3,95.1,98.9,90.4,86.7,86.9,80.6,106,97.2,95.2,90.6
"NC(=O)c1ccc(N(C(N)=O)c2c(F)cccc2F)nc1-c1ccc(F)cc1F + NC(=O)Nc1cc(-c2cccc(F)c2)sc1C(=O)N[C@H]1CCCNC1 [AZD7762] (first compound 2 µM, partner dose 0.1 µM)",82.5,89.8,128,60.9,87.3,84.3,104,77.7,35.2,136,40.5,85.8,80.1,83.4,84.7,68.7,68,74,45.3,55.8
"CCCCCCCCc1ccc(CCC(N)(CO)CO)cc1 [fingolimod] + C[C@]1(c2nc3c(C(N)=O)cccc3[nH]2)CCCN1 [Veliparib] (first compound 10 µM, partner dose 7 µM)",1.47,68.3,37.4,0.231,22.7,10.2,8.09,42.6,1.69,33.9,5.69,0.361,15.3,74.8,79.7,18.1,13.6,59.3,21,63.8
"COc1cc2c(Oc3ccc4[nH]c(C)cc4c3F)ncnc2cc1OCCCN1CCCC1 [cediranib] + CC(C)CCN1c2nc(Nc3cc(F)c(O)c(F)c3)ncc2N(C)C(=O)C1C [BID1870] (first compound 2 µM, partner dose 1 µM)",62.4,83.9,87.9,101,67,65.8,88,65.2,71.6,66.7,58.1,71.4,67.2,92.3,105,80.6,96.8,85.6,64.5,60.3
"NC(=O)c1ccc(N(C(N)=O)c2c(F)cccc2F)nc1-c1ccc(F)cc1F + O=C(O)c1ccc(-c2c[nH]c3ncc(-c4ccccc4)cc23)cc1C1CCCC1 [GSK650394] (first compound 2 µM, partner dose 0.8 µM)",70.5,87.3,70.5,87.7,96.3,82.2,96.3,85.3,86.7,96.5,77.8,81,99.1,83,87.2,109,92.8,101,103,84.7
"CC(C)(C)c1cnc(CSc2cnc(NC(=O)C3CCNCC3)s2)o1 + CCc1ccc(CCOc2ccc(CC3SC(=O)NC3=O)cc2)nc1 [pioglitazone] (first compound 0.05 µM, partner dose 10 µM)",115,94.9,95.9,95.7,79.2,94.6,88.5,108,19.7,87.3,47.1,79.2,98.6,72.2,95.7,72.9,97.8,84.5,76.5,104
"CCCCCCCCc1ccc(CCC(N)(CO)CO)cc1 [fingolimod] + CCCS(=O)(=O)Nc1ccc(F)c(C(=O)c2c[nH]c3ncc(Cl)cc23)c1F [PLX4720] (first compound 10 µM, partner dose 0.4 µM)",1.05,25.8,4.49,0.309,14.6,1.16,1.2,34.9,0.793,19,0.616,0.407,9.57,35.9,78.5,18,6.18,61.1,2.44,21.9
"CC(C)(C)c1cnc(CSc2cnc(NC(=O)C3CCNCC3)s2)o1 + COc1ccc(-c2ccc3c(N4CCOCC4)nc(N4C[C@@H](C)O[C@@H](C)C4)nc3n2)cc1CO [KU0063794] (first compound 0.05 µM, partner dose 0.1 µM)",80.1,85.8,92.7,63.4,69.5,71,52.6,82.7,18.5,88.2,37.3,71.2,72,53.1,95.4,96,80.6,78.8,79.8,74.8
"CN(NC(=O)CC(=O)NN(C)C(=S)c1ccccc1)C(=S)c1ccccc1 + Cc1cc([N+](=O)[O-])ccc1NS(=O)(=O)c1cc(Cl)ccc1Cl [FH535] (first compound 0.03 µM, partner dose 5 µM)",1.61,22.9,30.7,3.89,24.7,20.8,70.7,4.55,63.7,12,13.8,5.33,79.2,29.2,64.8,39.7,8.74,68.6,23.7,70.7
"NC(=O)c1ccc(N(C(N)=O)c2c(F)cccc2F)nc1-c1ccc(F)cc1F + Cc1cc(Nc2cc(N3CCN(C)CC3)nc(/C=C/c3ccccc3)n2)n[nH]1 [ENMD2076] (first compound 2 µM, partner dose 0.2 µM)",92.3,107,120,71.3,93.5,108,110,98.7,94.9,91.8,45.3,93.4,86.6,75.6,87.3,94.5,63.5,103,83,75.4
"CC(C)(C)c1cnc(CSc2cnc(NC(=O)C3CCNCC3)s2)o1 + CN(C)S(=O)(=O)c1ccc2c(c1)/C(=C/c1cc3c([nH]1)CCCC3)C(=O)N2 [SU6656] (first compound 0.05 µM, partner dose 2 µM)",61,92.4,74.9,63.3,74.6,77.1,89.8,85.9,47.9,75.3,50.1,88.2,84,75.6,76.7,54.1,56.5,58,58.4,94
"CCCCCCCCc1ccc(CCC(N)(CO)CO)cc1 [fingolimod] + OCc1c[nH]c2ccccc12 [Indole-3-carbinol] (first compound 10 µM, partner dose 4 µM)",0.738,38,5.3,0.19,5.34,2.1,31.5,8.79,1.97,1.16,0.264,0.382,6.09,35.1,56.2,8.9,13,17.9,12.6,24.6
